Among all 310,000 compounds or so, about 2,200 (0.71%) showed an effect of 50% or more. The effect is printed as a negative number. This is one part of the list.
Molecular target: human ether-à-go-go-related gene (hERG) potassium channel (human, UniProt Q12809)
Test: primary screen, population patch clamp on CHO cells stably expressing hERG

human ether-à-go-go-related gene (hERG) potassium channel, sequence (Q12809 whole entry, looked up): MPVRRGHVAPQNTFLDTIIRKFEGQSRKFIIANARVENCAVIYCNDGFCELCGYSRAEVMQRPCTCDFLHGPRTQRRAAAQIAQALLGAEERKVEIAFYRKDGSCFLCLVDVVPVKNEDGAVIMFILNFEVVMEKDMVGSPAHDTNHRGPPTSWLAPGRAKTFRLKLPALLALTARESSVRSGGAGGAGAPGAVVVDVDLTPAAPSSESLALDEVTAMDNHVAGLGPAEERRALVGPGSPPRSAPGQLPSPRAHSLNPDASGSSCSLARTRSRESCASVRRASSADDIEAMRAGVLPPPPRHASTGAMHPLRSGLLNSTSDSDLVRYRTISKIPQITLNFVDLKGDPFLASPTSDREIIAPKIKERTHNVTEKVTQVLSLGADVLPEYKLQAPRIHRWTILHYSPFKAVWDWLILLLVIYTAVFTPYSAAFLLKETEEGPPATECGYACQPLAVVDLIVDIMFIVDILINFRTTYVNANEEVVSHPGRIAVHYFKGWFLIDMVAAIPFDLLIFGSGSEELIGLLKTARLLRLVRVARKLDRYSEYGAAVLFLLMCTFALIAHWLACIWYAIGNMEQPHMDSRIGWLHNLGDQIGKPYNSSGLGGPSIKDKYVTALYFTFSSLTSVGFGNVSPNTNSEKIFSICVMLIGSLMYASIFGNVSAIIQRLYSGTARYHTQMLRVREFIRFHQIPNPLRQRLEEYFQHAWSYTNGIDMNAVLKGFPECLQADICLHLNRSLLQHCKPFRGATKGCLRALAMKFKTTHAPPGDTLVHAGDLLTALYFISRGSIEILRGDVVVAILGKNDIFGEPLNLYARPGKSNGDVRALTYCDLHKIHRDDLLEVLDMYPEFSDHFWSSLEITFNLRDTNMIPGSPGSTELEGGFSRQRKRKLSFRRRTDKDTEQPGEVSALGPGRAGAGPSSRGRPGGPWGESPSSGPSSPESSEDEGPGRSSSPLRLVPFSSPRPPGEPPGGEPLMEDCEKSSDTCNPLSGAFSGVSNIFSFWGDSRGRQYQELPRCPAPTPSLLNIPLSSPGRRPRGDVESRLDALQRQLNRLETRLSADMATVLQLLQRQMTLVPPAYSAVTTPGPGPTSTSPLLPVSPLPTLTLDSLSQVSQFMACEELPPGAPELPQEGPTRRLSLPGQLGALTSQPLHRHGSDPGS

Row | Compound | hERG current change (%, negative = inhibition) at 1uM
1 | CCOC(=O)C1CCN(C(=O)Cn2nc(C)n3cccc3c2=O)CC1 | 5.78%
2 | Cl.c1ccc2c(N3CCCCC3)ncnc2c1 | 7.02%
3 | C(=N\N1CCOCC1)/c1cccs1 | 10%
4 | Cc1cc(C)c(CN2CCC(n3nccc3NC(=O)c3ccccc3Cl)CC2)cc1C | 1.2%
5 | CCSc1cc(N2CCOCC2)nc(-c2ccccc2)n1 | 10.1%
6 | O=C(CCNS(=O)(=O)c1ccc(Cl)cc1)OCC(=O)N1CCN(C(=O)c2ccco2)CC1 | 13.2%
7 | O=C(C[n+]1cccc(CO)c1)Nc1nc2ccccc2s1.[Cl-] | 2.06%
8 | Cn1c(-c2ccco2)n[nH]c1=S | 11.1%
9 | CCn1nc(C)c(/C=N/NC(=O)c2ccoc2C)c1C | 13.2%
10 | O=C(NCCN1CCN(c2ccccc2)CC1)Nc1ccc(Cl)cc1 | -10.3%
11 | Cc1cc(C)c2nc(-c3cccc(Cl)c3)c(C)c(C(=O)N3CCOCC3)c2c1 | 16.4%
12 | COc1ccccc1N1CCN(Cc2cccc(OC)c2O)CC1 | -20.1%
13 | CCCc1cnc(N2CCN(C(=O)c3ccccc3)CC2)nc1 | -3.08%
14 | CCC(NC(=O)C1CCC1)c1ccccc1 (stereo not shown) | 13.6%
15 | Cc1ccc(N=C2SCCCN2C(=O)c2ccco2)cc1Cl | 11.5%
16 | CC(OC(=O)CCCc1nc2ccccc2s1)C(=O)NC(N)=O (stereo not shown) | -1.04%
17 | CC1(C)CC2CC(C)(CN2C(=O)COC(=O)c2ccccc2C(F)(F)F)C1 (stereo not shown) | 8.67%
18 | O=S(=O)(N/N=C\c1cccc(F)c1)c1ccccc1 | 2.31%
19 | CCCCN1CC(O)=C(c2nc3ccccc3[nH]2)C1=N | 11.4%
20 | CSC1=NSC2=NC(=O)/C(=C/c3coc4ccc(O)cc4c3=O)C(=N)N12 | 0.0483%
21 | O=CN1CCCN(Cc2nc(Cc3ccccc3F)no2)CC1 | 12.3%
22 | COc1cccc(OC)c1C(=O)NC(C)c1ccccc1 (stereo not shown) | 10.5%

Row | Compound | hERG current change (%, negative = inhibition) at 1uM
23 | CCOCCCn1c(=NC(C)=O)c(C(=O)OCC)cc2c(=O)n3ccccc3nc21 | -4.7%
24 | CC1CCCCN1C(=O)CCNC(=O)Cn1cnc2ccccc2c1=O (stereo not shown) | 16.5%
25 | CC(C)(C)c1ccc(C(=O)N/N=C/c2ccccn2)cc1 | 8.52%
26 | COc1ccccc1C(=O)Nc1nnc(S(=O)(=O)N(C)Cc2ccccc2)s1 | 14.5%
27 | Cc1ccc2cc(C)c3nnc(SCC(=O)Nc4nc5c(s4)CCCC5)n3c2c1C | 3.81%
28 | CCOC(=O)c1cc2[nH]c3ccccc3c2[n+](-c2ccc([N+](=O)[O-])cc2)c1N.O=C([O-])C(F)(F)F | -13.8%
29 | COc1cccc(C2N(c3ccccc3)CCN2c2ccccc2)c1OC | 11.3%
30 | CCC(=O)Nc1ccc(C(=O)COC(=O)C(CCSC)NC(=O)COc2ccccc2)cc1 (stereo not shown) | 10.6%
31 | COc1ccc(C2C(C(=O)c3ccco3)=C(O)C(=O)N2CC2CCCO2)cc1OC (stereo not shown) | 15.4%
32 | Cc1ccc(C(=O)N2CCN(Cc3ccc4c(c3)OCO4)CC2)c(Cl)c1 | 10.5%
33 | COc1ccc(C(=O)Nc2ccc3ccccc3n2)c(OC)c1OC | 17.3%
34 | CCCCN(CC)C(=S)Nc1ccc2nc(N3CCN(C)CC3)cc(C)c2c1 | 4.86%
35 | CCC(C)(C)NC(=O)C(c1ccccn1)N(C(=O)c1csnn1)C1CCCCC1 (stereo not shown) | 6.8%
36 | O=C(Nc1ccc(Cl)cc1)Nc1nnc(CSCc2ccc(Cl)cc2)s1 | 15.1%
37 | O=C(CN1C(=O)c2ccccc2C1=O)Nc1ccccc1F | -2.95%
38 | O=C(CCS(=O)(=O)Cc1ccccc1)Nc1ncc([N+](=O)[O-])s1 | 10.2%
39 | C=CCn1c(Cc2cccc3ccccc23)n[nH]c1=S | 6.39%
40 | O=C1N=c2ccc([N+](=O)[O-])cc2=C1c1sc(=O)[nH]c1O | 12.1%
41 | Cc1[nH]n(-c2ccccc2)c(=O)c1C=NC1CCCCCC1 | 9.97%
42 | Cc1cccc(C(=O)O/N=C(\N)c2ccccn2)c1 | 1.43%
43 | Cc1nn(C)cc1CNC(=O)C1C2CCC(C2)C1C(=O)O (stereo not shown) | 17.5%
44 | Cc1cccc(OCC(=O)Nc2cccc(C(=O)Nc3ccccc3C(=O)O)c2)c1 | 14.2%

Row | Compound | hERG current change (%, negative = inhibition) at 1uM
45 | COc1cccc(CC(NC(C)=O)C(=O)NC2CCN(S(=O)(=O)c3ccc(NC(C)=O)cc3)CC2)c1 (stereo not shown) | 9.93%
46 | COc1ccc(OC)c(/C=C/C(=O)N(C)CC(=O)Nc2ccc(N3CCOCC3)cc2)c1 | -0.518%
47 | N#Cc1ccc(CSc2nnc(-c3cccc(S(=O)(=O)N4CCCCC4)c3)o2)cc1 | 10.9%
48 | CCCCNC(=O)c1ccc(CS(=O)(=O)Cc2ccccc2F)o1 | 8.25%
49 | Cn1cccc1C(=O)NC(=O)COC(=O)c1cc(Cl)ccc1[N+](=O)[O-] | 10.8%
50 | CN1CCN(c2ccc([N+](=O)[O-])cc2C(=O)c2ccccc2)CC1 | -17.5%
51 | CC(C)NC(=O)c1ccc(C2SCC(=O)N2Cc2ccccc2)cc1 (stereo not shown) | 8.98%
52 | O=C(O)c1cccnc1Sc1ccccc1 | 15%
53 | N#CCCn1cnc2c(=S)nc[nH]c21 | 1.34%
54 | CCNc1nc2nonc2nc1NCC | -6.84%
55 | CCC1=C(OC(=O)N(CC)CC)N2C(=O)OC(=NCC3CC3)[C@]2(C)[C@H]2C1=CC[C@H]1C(=O)N(CC)C(=O)[C@H]12 | 16.9%
56 | COc1cccc(OCC(O)CN2CCN(CCN3C(=O)c4cccc5cccc(c45)C3=O)CC2)c1.Cl (stereo not shown) | -18.3%
57 | CCNC(=O)COc1ccc(/C=N/NC(=O)c2cccnc2)cc1OC | 25.3%
58 | CCn1ncc(C2=NOC(C(=O)Nc3cc(OC)c(Cl)cc3OC)C2)c1C (stereo not shown) | -1.93%
59 | CCOc1cc(S(=O)(=O)NC2CC2)c(OCC)cc1-n1cnnn1 | -7.47%
60 | CC(C)CC(=O)NC(c1ccccc1)c1c(O)ccc2ccccc12 (stereo not shown) | 14%
61 | O=C(O)C1CCCCC1C(=O)NCCCc1ccccc1 (stereo not shown) | 1.59%
62 | Cc1cccc(-n2nnc3cnn(C)c3c2=O)c1 | 7.4%
63 | CCCCN(CCCC)CCNC(=O)CN1C(=O)COc2ccc(S(=O)(=O)N3CCC(C)CC3)cc21 | -28.6%
64 | CNC(=O)c1cc2cc(OC)ccc2n1CCN(Cc1ccccc1)Cc1ccccc1.Cl | 11.6%
65 | O=C(/C(=N\Nc1ccccc1)Sc1nnnn1-c1ccccc1)c1ccccc1 | 10.1%
66 | CC(C)c1ccc(/C=N\NC(=O)c2ccc(Cn3cccn3)o2)cc1 | -3.86%

Row | Compound | hERG current change (%, negative = inhibition) at 1uM
67 | COc1ccc(CNC(=O)C2CCN(S(=O)(=O)N3CCCCC3)CC2)cc1 | 10.4%
68 | Cc1ccc(C)c(OCC(=O)N2CCN(C(=O)c3ccco3)CC2)c1 | 1.09%
69 | CN1CCCN(S(=O)(=O)c2cccc(Cl)c2Cl)CC1.Cl | 5.98%
70 | COc1cccc(CNc2ccc([N+](=O)[O-])c(NCC(=O)O)n2)c1 | 12%
71 | Cc1nnc2sc(SCC(=O)Nc3nccs3)nn2c1=O | 25.4%
72 | S=C(N/N=C/c1cccc2ccccc12)Nc1cccc(Cl)c1 | 11.3%
73 | COCCN1C(=O)/C(=C/c2ccc(N3CCCC3)cc2C)SC1=S | 7.09%
74 | COC(=O)c1cc(C(=O)OC)[nH]n1 | 17.5%
75 | Cc1ccc(OC(=O)CCc2c(C)nc3ncnn3c2C)cc1 | 6.69%
76 | N#C/C(=C/c1ccccc1OCc1ccc(F)cc1)c1ccc(C(=O)O)cc1 | 16.7%
77 | CN(C)CCC1CCN(c2cc(C#N)c(C#N)cc2[N+](=O)[O-])CC1 | -5.76%
78 | O=C1CCc2cc(S(=O)(=O)NC(Cc3ccccc3)C(=O)NC3CCCC3)ccc2N1 (stereo not shown) | 15.3%
79 | C#CCOCCOCCOCCNc1nc(N2CCN(C(=O)[C@H]([C@@H](C)CC)n3cc([C@@H](N)CO)nn3)CC2)nc(N2CCN(C(=O)[C@H](CCCCN)n3cc([C@@H](N)CC(C)C)nn3)CC2)n1.Cl | 6.17%
80 | CCC(=O)NCCNc1nc2cc(C)cc(C)c2cc1C#N | 32.9%
81 | Cc1[nH][nH]c(=O)c1C(c1cc([N+](=O)[O-])ccc1O)c1c(C)[nH][nH]c1=O | 4.75%
82 | COC(=O)C1=C(c2ccc(F)cc2OCc2ccccc2)C[C@@H]2CC[C@H]1N2C(=O)NCc1cccc(F)c1 | 22.8%
83 | O=C(N[C@@H](Cc1ccccc1)C(=O)O)c1c(F)c(F)c(F)c(F)c1F | 9%
84 | C=CCn1c(SCc2nc3ccccc3[nH]2)nnc1-c1ccncc1 | -1.13%
85 | Cc1cc(C)nc(NC(=O)NS(=O)(=O)N2CCCCCC2)n1 | 6.38%
86 | Cc1ccc(C(=O)NCCCC(=O)O)o1 | 3.19%
87 | COCCn1c(-c2cccs2)nc2nc3ccccc3nc21 | 9.75%
88 | CCCC[C@@H]1C[C@H]1[C@@H](NC(=O)c1ccccc1)c1ccccc1C(F)(F)F | 8.14%
